In all, about 310,000 compounds went through this assay and about 14,000 (4.5%) showed an effect of 50% or more. The effect is printed as a negative number. Some of the results follow.
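Further: peak tail current of the secondary pulse compared with the same well before compound.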

This test deals with human ether-à-go-go-related gene (hERG) potassium channel (human, UniProt Q12809). Put plainly: primary screen, population patch clamp on CHO cells stably expressing hERG.
Chain of human ether-à-go-go-related gene (hERG) potassium channel (Q12809 whole entry, looked up): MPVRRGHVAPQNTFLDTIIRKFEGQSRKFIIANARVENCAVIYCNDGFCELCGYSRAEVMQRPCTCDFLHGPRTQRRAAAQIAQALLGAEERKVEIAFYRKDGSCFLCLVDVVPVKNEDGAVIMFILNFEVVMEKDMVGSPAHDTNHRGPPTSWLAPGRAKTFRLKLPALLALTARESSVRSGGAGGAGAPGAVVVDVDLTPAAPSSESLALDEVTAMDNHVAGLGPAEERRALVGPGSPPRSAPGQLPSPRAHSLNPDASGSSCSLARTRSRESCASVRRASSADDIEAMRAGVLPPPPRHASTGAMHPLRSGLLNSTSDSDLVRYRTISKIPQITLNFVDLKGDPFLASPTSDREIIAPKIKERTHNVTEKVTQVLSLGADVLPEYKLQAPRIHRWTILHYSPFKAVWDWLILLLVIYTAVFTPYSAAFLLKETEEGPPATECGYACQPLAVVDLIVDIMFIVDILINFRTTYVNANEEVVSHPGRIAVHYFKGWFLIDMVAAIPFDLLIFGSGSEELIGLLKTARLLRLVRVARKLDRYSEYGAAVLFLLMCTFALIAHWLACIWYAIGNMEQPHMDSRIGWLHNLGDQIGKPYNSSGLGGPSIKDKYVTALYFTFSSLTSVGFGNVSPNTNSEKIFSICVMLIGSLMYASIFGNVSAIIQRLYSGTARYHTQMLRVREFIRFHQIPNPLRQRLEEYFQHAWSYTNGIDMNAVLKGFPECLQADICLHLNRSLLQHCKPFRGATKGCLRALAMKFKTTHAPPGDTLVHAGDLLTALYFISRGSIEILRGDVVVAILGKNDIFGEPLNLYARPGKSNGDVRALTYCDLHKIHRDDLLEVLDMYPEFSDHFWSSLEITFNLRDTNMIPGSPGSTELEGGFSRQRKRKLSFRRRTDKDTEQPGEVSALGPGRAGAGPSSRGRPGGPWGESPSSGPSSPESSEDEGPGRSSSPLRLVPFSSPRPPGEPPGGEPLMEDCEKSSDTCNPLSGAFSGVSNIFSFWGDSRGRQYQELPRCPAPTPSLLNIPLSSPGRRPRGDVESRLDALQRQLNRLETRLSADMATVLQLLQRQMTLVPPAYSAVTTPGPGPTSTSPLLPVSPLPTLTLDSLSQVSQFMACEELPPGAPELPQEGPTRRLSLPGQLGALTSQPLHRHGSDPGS
As for `CCN(CC)CCN(C(=O)c1cc2ccccc2cc1OC)c1nc2ccc(OC)cc2s1.Cl`, the “hERG current change (%, negative = inhibition) at 10uM” value is reported as -13.4%.

Consider `CC(=NCCN1CCOCC1)c1c(O)n(Cc2ccccc2)c(=O)[nH]c1=O`, for which the “hERG current change (%, negative = inhibition) at 10uM” value was -30.1%.

Consider `COC(=O)C1CCN(CC(N)=O)CC1`, for which the “hERG current change (%, negative = inhibition) at 10uM” value was -0.199%.

With `COc1ccc(CCNC(=O)CCCn2c(=O)c3cccn3c3cccnc32)c(OC)c1OC`, the “hERG current change (%, negative = inhibition) at 10uM” value is -19.5%.

Take `Cc1ccc(S(=O)(=O)NNC(=O)C2CCN(S(=O)(=O)c3ccc(C)cc3)CC2)cc1`: the “hERG current change (%, negative = inhibition) at 10uM” value is on record as -12.4%.

For `O=C1CN(C(=S)Nc2ccc(OC(F)F)cc2)CCN1`, the “hERG current change (%, negative = inhibition) at 10uM” value was found to be 7.1%.

Take `CCOc1cc(CNCc2cccs2)ccc1OCC(=O)NC(C)(C)C.Cl`: the “hERG current change (%, negative = inhibition) at 10uM” value is recorded as -12.4%.

With `O=C(CN1CCN(C(=O)CN2C(=O)NC3(CCCC3)C2=O)CC1)Nc1cccc(F)c1`, the “hERG current change (%, negative = inhibition) at 10uM” value is -2.85%.

As for `CCN(CC)c1ccc(/C=N/N2CCN(c3ccccc3OC)CC2)cc1`, the “hERG current change (%, negative = inhibition) at 10uM” value stood at 14.4%.

For the compound `CCc1ccc(C(=O)C(C)OC(=O)c2cccc(S(=O)(=O)N3CCOCC3)c2)cc1` (stereo not shown), the “hERG current change (%, negative = inhibition) at 10uM” value was -12.5%.

As to `Cc1ccc(Cn2c(NCCCn3ccnc3)nc3c2c(=O)n(C)c(=O)n3C)cc1`, the “hERG current change (%, negative = inhibition) at 10uM” value was -30.1%.

On to `Fc1cccc(NC(=S)N2CCN(c3ccccn3)CC2)c1`, for which the “hERG current change (%, negative = inhibition) at 10uM” value is recorded as 5.41%.

For `COc1ccc(NC(=O)CSc2nc(=O)n(CCN3CCOCC3)c3c2CCC3)c(OC)c1`, the “hERG current change (%, negative = inhibition) at 10uM” value is -28.4%.

On to `COc1ccc(C(=O)NNC(=O)c2ccncc2)cc1[N+](=O)[O-]`, for which the “hERG current change (%, negative = inhibition) at 10uM” value is on record as 25.2%.

`COCC(C)n1c(SCc2ccc(C(=O)OC)o2)nc2ccccc2c1=O` (stereo not shown): the “hERG current change (%, negative = inhibition) at 10uM” value is -8.61%.

Turning to `O=C1CCCC(=O)C1C(c1ccc(Cl)cc1)C1C(=O)CCCC1=O`, the “hERG current change (%, negative = inhibition) at 10uM” value is 13.7%.

For the compound `CC(C)(C)C#CC(CCc1ccccc1)OS(N)(=O)=O` (stereo not shown), the “hERG current change (%, negative = inhibition) at 10uM” value came to 7.66%.

Take `Cc1ccc(C2=NC3(CCCCC3)N=C2SCC(=O)Nc2ccc3c(c2)OCCO3)cc1`: the “hERG current change (%, negative = inhibition) at 10uM” value is recorded as 11.6%.

In the case of `Cc1cc(NC(=O)c2ccc(S(=O)(=O)N3CCOCC3)cc2)nc2c1c(=O)oc1ccccc12`, the “hERG current change (%, negative = inhibition) at 10uM” value is given as -16.9%.

Turning to `CCC(C)NC(=O)c1ccc(CS(=O)(=O)c2ccc(OC)cc2)o1` (stereo not shown), the “hERG current change (%, negative = inhibition) at 10uM” value was -2.75%.

Regarding `COc1ccc(CC(=O)NCC(=O)N/N=C/c2c[nH]c3ccccc23)cc1`, the “hERG current change (%, negative = inhibition) at 10uM” value came out at 9.81%.

For `CCOc1cccc(C(=O)NC(c2ccccc2)C(C)C)c1` (stereo not shown), the “hERG current change (%, negative = inhibition) at 10uM” value stood at 10.4%.

As to `O=C(Nc1cccc(-c2nc3ccccc3[nH]2)c1)c1ccccn1`, the “hERG current change (%, negative = inhibition) at 10uM” value is listed as -18.3%.

Turning to `O=C(NCCc1ccccc1)c1ccc2c(c1)S(=O)(=O)N=C1CCCCCN12`, the “hERG current change (%, negative = inhibition) at 10uM” value was determined as 4.12%.

For the compound `O=C(NN=C1CCCCCC1)NC1CCCCC1`, the “hERG current change (%, negative = inhibition) at 10uM” value was -9.86%.

As for `O=C(NCC1CCCO1)c1ccc(COc2ccc(Cl)cc2)cc1` (stereo not shown), the “hERG current change (%, negative = inhibition) at 10uM” value is listed as -11.9%.

Consider `Cc1nnc2n1N=C(c1ccc3c(c1)NC(=O)CO3)CS2.Cl`, for which the “hERG current change (%, negative = inhibition) at 10uM” value is on record as -11.1%.

Consider `Cc1cc(C)c(C)c(S(=O)(=O)Nc2cccc(-n3cnnn3)c2)c1C`, for which the “hERG current change (%, negative = inhibition) at 10uM” value is 23.3%.

On to `CCc1ccc(NC(=S)N(CCC(C)C)C2CCN(C(C)=O)CC2)cc1`, for which the “hERG current change (%, negative = inhibition) at 10uM” value is listed as -20.9%.

With `COc1cc(OC)c(OC)cc1CNCCNC(=O)c1ccco1`, the “hERG current change (%, negative = inhibition) at 10uM” value is reported as 18.2%.

On to `COc1ccc(COC(=O)c2ccc(S(=O)(=O)N3CCCCC3)cc2)cc1OC`, for which the “hERG current change (%, negative = inhibition) at 10uM” value is listed as 11%.

As for `C=CCNC(=O)c1oc2ccc(S(=O)(=O)N3CCCCC3)cc2c1C`, the “hERG current change (%, negative = inhibition) at 10uM” value is listed as -0.838%.

Turning to `CC(C)NC(=O)c1ccc(COc2ccc(C(C)(C)C)cc2)o1`, the “hERG current change (%, negative = inhibition) at 10uM” value is listed as 11.7%.

As to `Cc1ccc(S(=O)(=O)Cn2cnnn2)cc1`, the “hERG current change (%, negative = inhibition) at 10uM” value is recorded as 7.14%.

Consider `O=C(CCC1N=C2c3ccccc3N=C(SCC(=O)NCC3CCCO3)N2C1=O)NCc1ccc(F)cc1` (stereo not shown), for which the “hERG current change (%, negative = inhibition) at 10uM” value is recorded as 2.89%.

For `C=CCn1c(SCC(=O)NCCc2ccccc2)nnc1C(C)NC(=O)c1cccs1` (stereo not shown), the “hERG current change (%, negative = inhibition) at 10uM” value was -9.52%.

As to `O=C(N/N=C/c1ccc(O)cc1)/C(=C/c1ccc([N+](=O)[O-])cc1)NC(=O)c1ccccc1`, the “hERG current change (%, negative = inhibition) at 10uM” value amounted to 8.54%.

Turning to `COc1ccc(-c2nnc3ccc(SCC(=O)Nc4nccs4)nn23)cc1OC`, the “hERG current change (%, negative = inhibition) at 10uM” value is -3.17%.

`Cc1nnc2c(N(C)S(=O)(=O)c3ccccc3)nc3ccccc3n12`: the “hERG current change (%, negative = inhibition) at 10uM” value is reported as -0.049%.

`O=C(O)c1ccccc1C(=O)Nc1ccccc1[N+](=O)[O-]`: the “hERG current change (%, negative = inhibition) at 10uM” value amounted to 6.88%.

For the compound `CCCc1[nH]nc2c1C1(C(=O)N(CC(N)=O)c3ccccc31)C(C(=O)OC)=C(N)O2` (stereo not shown), the “hERG current change (%, negative = inhibition) at 10uM” value came out at 7.26%.

On to `CCC(=O)N1CCc2cc(S(=O)(=O)CCC(=O)NCCc3ccc(OC)c(OC)c3)ccc21`, for which the “hERG current change (%, negative = inhibition) at 10uM” value is given as -0.229%.

Consider `COc1ccccc1NS(=O)(=O)c1cc(NC(=O)c2ccncc2)ccc1N1CCCC1`, for which the “hERG current change (%, negative = inhibition) at 10uM” value was determined as 69.9%.

Values taken from publication PMC4336329 (PLoS ONE, 2015).
